# Test results as given in PubChem BioAssay AID504845 (National Center for Advancing Translational Sciences (NCATS), 2011).
# Among all 390,000 compounds or so, about 150 (0.038%) were called active. This list was built around the results that the source calls inconclusive (neither active nor inactive); the mix of calls is not that of the screen. Calls follow the shape of the dose curve; as a rule, active = well fitted inhibition curve with a large enough effect; inconclusive = small, poorly fitted or top-dose-only effect; inactive = no such curve, though single readings can be large or run the other way. A potency beside an inconclusive call is a rough fit, not a confirmed value.
# Target: Regulator of G-protein signaling 4 (Homo sapiens) (UniProt P49798)
# Chain of UniProt P49798 (P49798 whole entry, looked up): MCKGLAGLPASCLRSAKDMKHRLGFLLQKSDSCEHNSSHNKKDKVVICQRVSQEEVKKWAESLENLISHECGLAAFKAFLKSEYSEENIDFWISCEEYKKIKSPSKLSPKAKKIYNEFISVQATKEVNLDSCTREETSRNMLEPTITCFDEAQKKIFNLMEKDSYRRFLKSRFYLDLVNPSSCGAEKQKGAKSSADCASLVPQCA
# Test: Inhibitors of Regulator of G Protein Signaling (RGS) 4: qHTS; also: nearly all actives have a fitted effect of over 75% in size
# Details: Transcreener GDP fluorescence polarization, RGS4-accelerated GTP hydrolysis; series mostly up to 114 µM; activity change, negative = inhibition: at the top concentration
# Summary of the method: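 MLSMR compounds (23 nl, pin-transferred) preincubated 10 min at room temperature with a 500nM (2x) first reagent, then RGS4 at 900nM (2x) plus Transcreener GDP mix added; fluorescence polarization (620/688 nm) read before and after 90 min at 30 °C.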
# % is scaled to controls: 0 for no effect and ±100 for the full control effect; potency is read from the fitted curve at half-maximal effect; tags tell the direction and shape of the fitted curve.
Structure (SMILES),Potency,"activity change, negative = inhibition"
CC1CCCC(C)N1C(=O)COC(=O)CSc1ccc([N+](=O)[O-])cc1 (stereo not given),"inconclusive: 39.8 µM [inhibitor, partial curve, poor fit]",–
NC(=O)c1cc[n+](CC(=O)c2ccc(NC(=O)c3ccccc3)cc2)cc1,"inconclusive: 39.8 µM [inhibitor, partial curve, poor fit]",–
O=C(Nc1ccc(Cl)cc1)[C@@H]1[C@@H]2C(=O)N(c3cccc(F)c3)C(=O)[C@@H]2[C@H]2C=CC=NN21,"inconclusive: 79.4 µM [inhibitor, single point]",–
COc1ccc(/C=N/NC(=O)Cn2nc(C)c([N+](=O)[O-])c2C)cc1,"inconclusive: 70.8 µM [inhibitor, single point]",–
COc1cc(Sc2ccc(C)cc2)c(OC)cc1N,"inconclusive: 100 µM [inhibitor, partial curve, poor fit]",–
CCCCc1c(C)nc(Nc2ccc(OC)cc2)[nH]c1=O,–,inactive: -23.9%
CCCCOc1ccc(CNC(=O)c2cccc(NC(=O)N3CCSc4ncccc43)c2)cc1,–,inactive: -5.46%
O=C(CCl)Nc1cn(-c2ccccc2)nc1-c1ccccc1,–,inactive: -10.1% [at 56.9 µM]
Cc1cc(C)nc(-n2nc(C)cc2NC(=O)c2cccc(S(=O)(=O)N(C)C)c2)n1,–,inactive: -6.28%
Cc1onc(C(=O)Nc2sc3c(c2C(N)=O)CCCC3)c1[N+](=O)[O-],"inconclusive: 28.2 µM [inhibitor, full curve, poor fit]",–
CCc1nc(SCC(=O)Nc2ccccc2Cl)n[nH]1,–,inactive: 19.2%
COc1ccccc1NC(=S)N(Cc1cccnc1)Cc1ccccc1Cl,"inconclusive: 89.1 µM [inhibitor, single point]",–
COC(=O)COc1ccc(C(C2C(=O)CC(C)(C)CC2=O)C2C(=O)CC(C)(C)CC2=O)cc1,"inconclusive: 35.5 µM [inhibitor, full curve, poor fit]",–
COCCNC(=O)Nc1ccc2nc(-c3ccco3)c(-c3ccco3)nc2c1,"inconclusive: 50.1 µM [inhibitor, partial curve, poor fit]",–
CCC(=O)/C=C1/Sc2ccc(OC)cc2N1CCO,"inconclusive: 28.2 µM [inhibitor, full curve, poor fit]",–
COc1ccc(N2CCN(CC(=O)Nc3ccc(C)cc3Br)CC2)cc1,–,inactive: -9.42%
COc1ccccc1C(=O)Oc1ccc(C(c2c(C)[nH][nH]c2=O)c2c(C)[nH][nH]c2=O)cc1,"inconclusive: 35.5 µM [inhibitor, partial curve, poor fit]",–
CSc1ccc(C2Nc3cccc4cccc(c34)N2)cc1,"inconclusive: 89.1 µM [inhibitor, partial curve, poor fit]",–
O=C(CCCCl)OCc1cn(-c2ccc(Cl)cc2)nn1,"inconclusive: 100 µM [inhibitor, partial curve, poor fit]",–
CC(=O)NC(CC(=O)OCC(=O)c1c(N)n(C)c(=O)n(C)c1=O)c1ccccc1 (stereo not given),"inconclusive: 79.4 µM [inhibitor, partial curve, poor fit]",–

Structure (SMILES),Potency,"activity change, negative = inhibition"
Cc1ccc(NC(=O)C2C(C(=O)O)C3C=CC2C32CC2)cc1 (stereo not given),"inconclusive: 100 µM [inhibitor, single point]",–
O=C(NCC1CCCO1)C(=O)N/N=C/c1ccccc1C(=O)O (stereo not given),"inconclusive: 28.2 µM [inhibitor, full curve, poor fit]",–
O=C(NNc1ccccc1)c1sc2ccccc2c1Cl,"inconclusive: 79.4 µM [inhibitor, partial curve, poor fit]",–
Clc1ccccc1Cn1c(/C=C/c2ccco2)nc2ccccc21,"inconclusive: 25.1 µM [inhibitor, full curve, poor fit]",–
Cc1ccc(C(=O)Nc2cc(Cl)ccc2N2CCCCC2)s1,"inconclusive: 89.1 µM [inhibitor, single point]",–
O=C(Nc1ccccc1)C1=C(c2ccccc2)S(=O)(=O)CCS1(=O)=O,"inconclusive: 25.1 µM [inhibitor, full curve, poor fit]",–
O=c1c(O)cccc2cc(O)c(O)c(O)c12,"inconclusive: 20 µM [inhibitor, full curve, poor fit]",–
O=C(O)CCCNc1cc(N2CCN(C(=O)c3ccco3)CC2)c2noc3c2c1C(=O)c1ccccc1-3,"inconclusive: 100 µM [inhibitor, partial curve, poor fit]",–
O=c1[nH]c2ccccc2n1CCC1CCCCC1,–,inactive: 10.5%
Cc1cccc2c3c([nH]c12)CCNC3,"inconclusive: 89.1 µM [inhibitor, single point]",–
CCCc1sc(N2CCCC(C(N)=O)C2)nc1-c1ccccc1 (stereo not given),"inconclusive: 50.1 µM [inhibitor, partial curve, poor fit]",–
COCCCN(C(=S)Nc1cc(Cl)cc(Cl)c1)C(C)c1ccncc1 (stereo not given),"inconclusive: 28.2 µM [inhibitor, full curve, poor fit]",–
COc1cc(/C=C2\SC(=O)NC2=O)ccc1Oc1ccc([N+](=O)[O-])cc1[N+](=O)[O-],"inconclusive: 35.5 µM [inhibitor, partial curve, poor fit]",–
CC(=O)N1CC23C=CC(CC2CC12CCCCCC2)O3 (stereo not given),"inconclusive: 50.1 µM [inhibitor, partial curve, poor fit]",–
CN(C)S(=O)(=O)c1ccc(S(=O)(=O)NCc2cccs2)cc1,–,inactive: -7.71%
Cc1nnc(NC(=O)CSc2nnc3scc(-c4ccc(C)c(C)c4)n23)s1,–,inactive: 7.55%
COc1ccc(OC)c(NC(=O)Cn2c(=O)cc(-c3ccccc3)c3c(C)nn(C)c32)c1,"inconclusive: 79.4 µM [inhibitor, partial curve, poor fit]",–
CCOc1ccc(N(Cc2ccccc2)C(=O)c2nc(S(C)(=O)=O)ncc2Cl)cc1,"inconclusive: 20 µM [inhibitor, full curve, poor fit]",–
S=c1nc2c(n[nH]1)c1ccccc1n2CCc1ccccc1,"inconclusive: 39.8 µM [inhibitor, partial curve, poor fit]",–
CC12CC3CC(C)(C1)CC(C(=O)NCc1ccco1)(C3)C2,"inconclusive: 79.4 µM [inhibitor, partial curve, poor fit]",–
